Test [1] addresses GST-NDUFS4 fusion protein (mouse) (UniProt Q9CXZ1). Nature of the test: pull-down; 2 ug GST or GST-NDUFS4 immobilised on Glutathione Sepharose 4B beads, incubated 3 hrs at 4°C with cleared HEK293T lysate (TNTE buffer, 150 mM NaCl, 1.0% Nonidet P-40) with STOML2-HA constructs; immunoblot; only the target purified. In general terms: Immunoblotting shows a protein as a band on a membrane.

Chains of the proteins cited; added tags and fusions are not shown. Residues count along the entry.
UniProt Q9CXZ1, residues 43-175: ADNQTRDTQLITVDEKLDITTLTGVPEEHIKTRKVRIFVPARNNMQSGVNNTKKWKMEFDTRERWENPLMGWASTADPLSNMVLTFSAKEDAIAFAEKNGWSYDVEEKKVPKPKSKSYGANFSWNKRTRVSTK

Another test concerns the target NDUFS4-FLAG (mouse) (UniProt Q9CXZ1). Briefly: co-IP; HEK293T transfected; cells cross-linked with 1 mM dithiobis(succinimidyl propionate); RIPA then NETN buffer; Anti-FLAG M2 magnetic beads overnight, eluted with 3X FLAG peptide; IgG as control.

No constants are given. Whether binding was seen depends on the method and setting. Binding seen in cells or lysates may run through a third protein. Some entries that bind do so weakly or less than the wild type. Tags and fused reporters may be left off the sequences shown.

B1: STOML2-HA ΔHP (Δ29–78) (protein, UniProt Q99JB2)
chain: LKEIVINVPEQSAVTLDNVTLQIDGVLYLRIMDPYKASYGVEDPEYAVTQLAQTTMRSELGKLSLDKVFRERESLNANIVDAINQAADCWGIRCLRYEIKDIHVPPRVKESMQMQVEAERRKRATVLESEGTRESAINVAEGKKQAQILASEAEKAEQINQAAGEASAVLAKAKAKAEAIRILAGALTQHNGDAAASLTVAEQYVSAFSKLAKDSNTVLLPSNPSDVTSMVAQAMGVYGALTKAPVPGAQNSSQSRRDVQATDTSIEELGRVKLS
Turning to B1, the binding result in test [1] is given as “binds”.

B2: STOML2-HA Δ169–212 (β4 sheet and α5 helix mutant) (protein, UniProt Q99JB2)
chain: SSGLPRNTVILFVPQQEAWVVERMGRFHRILEPGLNVLIPVLDRIRYVQSLKEIVINVPEQSAVTLDNVTLQIDGVLYLRIMDPYKASYGVEDPEYAVTQLAQTTMRSELGKLSLDKVFRERESLNANIVDAINQAADCWSAINVAEGKKQAQILASEAEKAEQINQAAGEASAVLAKAKAKAEAIRILAGALTQHNGDAAASLTVAEQYVSAFSKLAKDSNTVLLPSNPSDVTSMVAQAMGVYGALTKAPVPGAQNSSQSRRDVQATDTSIEELGRVKLS
In the case of B2, the binding entry in test [1] was “no binding”.

B3: STOML2-HA ΔSTOM (Δ79–212) (protein, UniProt Q99JB2)
chain: SSGLPRNTVILFVPQQEAWVVERMGRFHRILEPGLNVLIPVLDRIRYVQSSAINVAEGKKQAQILASEAEKAEQINQAAGEASAVLAKAKAKAEAIRILAGALTQHNGDAAASLTVAEQYVSAFSKLAKDSNTVLLPSNPSDVTSMVAQAMGVYGALTKAPVPGAQNSSQSRRDVQATDTSIEELGRVKLS
On to B3, for which the binding entry in test [1] is on record as “no binding”.

B4: STOML2-HA fusion protein, full length wild type (protein, UniProt Q99JB2 29-353)
chain: SSGLPRNTVILFVPQQEAWVVERMGRFHRILEPGLNVLIPVLDRIRYVQSLKEIVINVPEQSAVTLDNVTLQIDGVLYLRIMDPYKASYGVEDPEYAVTQLAQTTMRSELGKLSLDKVFRERESLNANIVDAINQAADCWGIRCLRYEIKDIHVPPRVKESMQMQVEAERRKRATVLESEGTRESAINVAEGKKQAQILASEAEKAEQINQAAGEASAVLAKAKAKAEAIRILAGALTQHNGDAAASLTVAEQYVSAFSKLAKDSNTVLLPSNPSDVTSMVAQAMGVYGALTKAPVPGAQNSSQSRRDVQATDTSIEELGRVKLS
With B4, the binding entry in test [1] was “binds”.

B5: STOML2-HA Δ110–168 (α1–4 helices mutant) (protein, UniProt Q99JB2)
chain: SSGLPRNTVILFVPQQEAWVVERMGRFHRILEPGLNVLIPVLDRIRYVQSLKEIVINVPEQSAVTLDNVTLQIDGVLYLRIGIRCLRYEIKDIHVPPRVKESMQMQVEAERRKRATVLESEGTRESAINVAEGKKQAQILASEAEKAEQINQAAGEASAVLAKAKAKAEAIRILAGALTQHNGDAAASLTVAEQYVSAFSKLAKDSNTVLLPSNPSDVTSMVAQAMGVYGALTKAPVPGAQNSSQSRRDVQATDTSIEELGRVKLS
With B5, the binding result in test [1] is on record as “binds”.

B6: STOML2-HA ΔN-term2, deletion mutant of HP and STOM (Δ29–212) (protein, UniProt Q99JB2)
chain: SAINVAEGKKQAQILASEAEKAEQINQAAGEASAVLAKAKAKAEAIRILAGALTQHNGDAAASLTVAEQYVSAFSKLAKDSNTVLLPSNPSDVTSMVAQAMGVYGALTKAPVPGAQNSSQSRRDVQATDTSIEELGRVKLS
As for B6, the binding entry with NDUFS4-FLAG (mouse) is “no binding”.

B7: STOML2-HA ΔCTD (Δ213–353) (domain or fragment, UniProt Q99JB2 29-212)
chain: SSGLPRNTVILFVPQQEAWVVERMGRFHRILEPGLNVLIPVLDRIRYVQSLKEIVINVPEQSAVTLDNVTLQIDGVLYLRIMDPYKASYGVEDPEYAVTQLAQTTMRSELGKLSLDKVFRERESLNANIVDAINQAADCWGIRCLRYEIKDIHVPPRVKESMQMQVEAERRKRATVLESEGTRE
In the case of B7, the binding entry (with NDUFS4-FLAG (mouse); in test [1]) was “binds” each time.

B8: STOML2-HA ΔN-term1 (Δ59–212) (protein, UniProt Q99JB2)
chain: SSGLPRNTVILFVPQQEAWVVERMGRFHRISAINVAEGKKQAQILASEAEKAEQINQAAGEASAVLAKAKAKAEAIRILAGALTQHNGDAAASLTVAEQYVSAFSKLAKDSNTVLLPSNPSDVTSMVAQAMGVYGALTKAPVPGAQNSSQSRRDVQATDTSIEELGRVKLS
As for B8, the binding entry with NDUFS4-FLAG (mouse) is “no binding”.

B9: STOML2-HA Δ70–109 (β1–3 sheets mutant) (protein, UniProt Q99JB2)
chain: SSGLPRNTVILFVPQQEAWVVERMGRFHRILEPGLNVLIPVMDPYKASYGVEDPEYAVTQLAQTTMRSELGKLSLDKVFRERESLNANIVDAINQAADCWGIRCLRYEIKDIHVPPRVKESMQMQVEAERRKRATVLESEGTRESAINVAEGKKQAQILASEAEKAEQINQAAGEASAVLAKAKAKAEAIRILAGALTQHNGDAAASLTVAEQYVSAFSKLAKDSNTVLLPSNPSDVTSMVAQAMGVYGALTKAPVPGAQNSSQSRRDVQATDTSIEELGRVKLS
For B9, the binding entry in test [1] was “no binding”.
